Some of the results follow.

In the experiment the test system is PfHDP1 homeodomain (GST-tagged). In words: gcPBM binding intensity (ln(normalized median fluorescence intensity)); higher = stronger DNA binding. The procedure, abridged:
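Binding of GST-tagged P. falciparum DNA-binding domains, expressed in E. coli and used at about 25 μg on average, was carried out for 1 h in 1× PBS containing 1% milk, 0.2 mg/ml BSA, 0.5% salmon testes DNA and 0.03% Triton X-100. The target was an Agilent 4 × 180k array of primer-extended double-stranded 36-bp intergenic genomic probes plus negative controls, read with Alexa488 anti-GST antibody at 488 nm. Binding intensity is the highest Masliner-normalised natural-log median intensity across replicate spots of either probe orientation.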
In the case of “ATATGGGTGAACATATGTACATATATATATTGATAA [XGTACX_site8438]”, the “gcPBM binding intensity (ln)” value worked out at 6.81.
Turning to “TTGGTATATTATAAAAGTACACATAATAAAAAATTT [XGTACX_site7985]”, the “gcPBM binding intensity (ln)” value stood at 6.52.
With “TTTATTTATAGGTATACACACTTTAATTAAAAGTTG [CACACA_site7232]” the figure was 6.63.
The result for “CCTAAAGTGTAAAATTCACACACATATATATATATA [CACACA_site8385]” reads 9.3.
With “TTTATTTTTGAAGTTGCACACACAAAAATAAAAAGT [CACACA_site8030]” the figure was 8.92.
As for “TTAAATATTTTTTATACACACATTTCTTATTTAACT [CACACA_site229]”, the “gcPBM binding intensity (ln)” value worked out at 6.87.
With “TAATTATTATTAATAGTACACACTATGGCATTTCAA [CACACA_site2488]” the figure was 6.37; with “TTTTTTTCAATATTTGCACACGATTAAAATATTTAA [CACACA_site5266]”, 10.6; with “TATTATATATATATATGTACATATTGTATGTTATAT [XGTACX_site5303]”, 6.68.
The result for “CAAACATATTAATGTACACACACCCACCCACAAACA [CACACA_site2752]” reads 8.44; that for “TATGTGAATATTGAGGTGCGGTTGTTAAAATTTATA [GTGCAC_site9915]”, 6.66; that for “AGTAGTCTGGAGAAGAGTACACAGTATCTGGTAGCT [XGTACX_site2042]”, 5.83.
The result for “ACATTAACATTGTTGGTGCAAAATTAATATGTTTTT [GTGCAC_site9673]” reads 10.7; that for AAATTTGCTTTACCAGTGCAAAAAAAAAAAAAAAAA, 8.88.
As to “TGTTTTTATCCTTATGGTACAGTATAATACTTACAG [XGTACX_site6381]”, the “gcPBM binding intensity (ln)” value stood at 6.62.
As for “AAATCACATAAAAATAGTACTTTTTTTTTTTTTTTT [XGTACX_site2696]”, the “gcPBM binding intensity (ln)” value came to 6.35.
The result for “GGAAAATGAAAACAAGGTACACATAAGAACAAACAA [XGTACX_site1221]” reads 7.25.
With “AATAGGGTCATTCAAAAAAAAAAAAAATAATAATAC [CACACA_negctrl_site644]” the figure was 6.57.
The result for “ATATATATATATATATGTACGTATAATATATATATG [XGTACX_site2212]” reads 9.38; that for “ATTATTCAGGTAAAGTGTACAGGAGAAAAATAAAAT [XGTACX_site334]”, 7.27; that for “CGCACCCAAATATATACACACATATATATATATATA [CACACA_site1651]”, 9.39.
As for “TATATGTTTAATTTCACACACAAATATGCATTTTAA [CACACA_site7881]”, the “gcPBM binding intensity (ln)” value turned out to be 6.84.
The result for “AAATAAATACTAGGCACACACACATATATATATATA [CACACA_site2079]” reads 9.14.
With “ATTGTAAGGAAACACACACACATATATATGTATATA [CACACA_site676]” the figure was 6.84.
The result for “ATTATTGTAATATTAGCACACATTACCTCACTACAA [CACACA_site2560]” reads 7.21; that for “AAAAAGAAGAAGAAATGTACGTAACTATATATTTAT [XGTACX_site4362]”, 6.47.
On to “TGGCTTTCCCTGCCGGTGCATTAACATTTTTTACAT [GTGCAC_site9914]”, for which the “gcPBM binding intensity (ln)” value is 10.2.
With “TTAATGGAAAAATAGGCACACACACCGATATACATA [CACACA_site8356]” the figure was 6.8; with “TTAATATTCCAGCTTTGTACATATATATATTATAAA [XGTACX_site7954]”, 6.6.
The result for “TTTTACATAAATTATAAATATATAAAATAAAAAAAA [CACACA_negctrl_site1499]” reads 6.19; that for “CATATATATATTTTTTGTACATATATTTTTACATAT [XGTACX_site8419]”, 6.81; that for “AATATAAAAATGTTTACACACACACGGAAATATATT [CACACA_site7226]”, 7.13.
With “ATATATATATGTGGATGTACATATATCTCTTATTAT [XGTACX_site1748]” the figure was 8.47; with “ATGTTGTACAAACACACACACAAAAAAAAAATAAAA [CACACA_site2406]”, 7.13.
As for “TAAAATTAATAAAATATTTTCACTTAATATATATAA [CACACA_negctrl_site1550]”, the “gcPBM binding intensity (ln)” value came to 6.57.
With “AGTACATTATAGAATACACACCTATATATATATATA [CACACA_site4447]” the figure was 9.29; with “AATTATTAAATATGTACACACGTACATTTTATAAAT [CACACA_site5341]”, 6.06.
In the case of “TAATACATACACACATGTACATACAGAAATAAATAA [XGTACX_site3245]”, the “gcPBM binding intensity (ln)” value worked out at 6.73.
With “TATTTTGTTCTTTCCACACACAAATACATATATTGT [CACACA_site4071]”, the “gcPBM binding intensity (ln)” value turned out to be 7.01.
With “ATTTTCCCTTGTTTTACACACGTGCTGATATGAGAT [CACACA_site2164]” the figure was 7.65; with “AAATAAATATATATATGTACATACAAATACACGGTA [XGTACX_site8510]”, 6.93.
Consider “AAGAAAAATGTCATATGATATCATATATTTTATAAT [TGCATGCA_negctrl_site296]”, for which the “gcPBM binding intensity (ln)” value was 6.44.
Turning to “ATATAATATTGAGTTTGTACATATATATATGAAGAT [XGTACX_site4444]”, the “gcPBM binding intensity (ln)” value came out at 6.64.
The result for “AATTATGCATTTGTCACACATATATATTACACTTGC [CACACA_site5324]” reads 6.96; that for “TAGCCAAAATATAATTTACACACTTATTAAATAATT [CACACA_site7963]”, 6.25.
